Test results taken from article PMC4336329 (PLoS ONE, 2015).
In all, about 310,000 compounds went through this assay and about 2,200 (0.71%) showed an effect of 50% or more. Effects have a minus sign here. Some of the results follow.

What follows are compounds tested against human ether-à-go-go-related gene (hERG) potassium channel (human, UniProt Q12809) (assay: primary screen, population patch clamp on CHO cells stably expressing hERG).
Chain of human ether-à-go-go-related gene (hERG) potassium channel (Q12809 whole entry, looked up): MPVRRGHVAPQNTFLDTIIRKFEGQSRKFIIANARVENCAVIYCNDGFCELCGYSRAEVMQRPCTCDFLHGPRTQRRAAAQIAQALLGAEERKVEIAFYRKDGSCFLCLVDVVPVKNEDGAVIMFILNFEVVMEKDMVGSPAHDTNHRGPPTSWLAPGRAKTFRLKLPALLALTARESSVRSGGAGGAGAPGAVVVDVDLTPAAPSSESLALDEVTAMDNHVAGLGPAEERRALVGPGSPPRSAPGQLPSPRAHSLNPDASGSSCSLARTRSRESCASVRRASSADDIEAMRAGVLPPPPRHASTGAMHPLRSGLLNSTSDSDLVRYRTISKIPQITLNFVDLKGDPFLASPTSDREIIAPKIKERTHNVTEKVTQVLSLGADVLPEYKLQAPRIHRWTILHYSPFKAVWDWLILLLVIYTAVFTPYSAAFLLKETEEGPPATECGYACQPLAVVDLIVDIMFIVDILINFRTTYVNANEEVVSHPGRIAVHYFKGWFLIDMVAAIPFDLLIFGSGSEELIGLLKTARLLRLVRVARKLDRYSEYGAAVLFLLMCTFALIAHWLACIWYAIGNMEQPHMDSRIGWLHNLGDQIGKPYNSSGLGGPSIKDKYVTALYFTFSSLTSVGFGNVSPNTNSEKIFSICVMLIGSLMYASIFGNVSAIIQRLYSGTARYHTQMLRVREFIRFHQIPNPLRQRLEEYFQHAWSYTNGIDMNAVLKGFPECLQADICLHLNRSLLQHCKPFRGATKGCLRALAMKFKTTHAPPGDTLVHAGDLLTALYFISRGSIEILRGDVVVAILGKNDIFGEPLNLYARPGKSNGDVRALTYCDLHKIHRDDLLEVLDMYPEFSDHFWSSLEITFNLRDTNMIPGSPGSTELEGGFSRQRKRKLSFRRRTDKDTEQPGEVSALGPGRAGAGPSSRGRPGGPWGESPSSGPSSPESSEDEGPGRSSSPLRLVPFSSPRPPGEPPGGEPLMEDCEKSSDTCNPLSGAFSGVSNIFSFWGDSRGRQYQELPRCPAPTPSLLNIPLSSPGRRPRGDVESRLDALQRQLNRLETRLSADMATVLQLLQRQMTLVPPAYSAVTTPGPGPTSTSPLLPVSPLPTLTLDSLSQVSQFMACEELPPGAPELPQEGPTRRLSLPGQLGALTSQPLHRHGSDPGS

Row | Structure (SMILES) | hERG current change (%, negative = inhibition) at 1uM [%]
1 | COc1cc(C2NC(=O)NC(c3ccccc3)=C2C(C)=O)c(Cl)cc1OCC(=O)O (stereo not drawn) | 9.1
2 | Cc1cc(C)cc(NC(=O)CSCc2cnn(-c3ccccc3)c2-n2cccc2)c1 | 13.4
3 | COc1ccc(-c2nnc(OC)c3ccccc23)cc1 | 11.7
4 | COC(=O)c1sccc1NC(=O)CN(C)NS(=O)(=O)c1ccc(Cl)cc1 | 11.3
5 | CCOC(=O)C1CCCN(C(=O)c2cc(S(=O)(=O)N3CCCCC3)ccc2Cl)C1 (stereo not drawn) | 7.59
6 | Cc1nc2sc(C(c3cccc(F)c3)N3CC(C)OC(C)C3)c(O)n2n1 (stereo not drawn) | 4.88
7 | CCOC(=O)C1=C(CN2CCN(C(=O)c3ccco3)CC2)NC(=O)NC1c1ccc(C)cc1 (stereo not drawn) | 2.29
8 | CCS(=O)(=O)C1=NN2C(=N)/C(=C\c3ccc(OC(=O)c4ccco4)c(OC)c3)C(=O)N=C2S1 | 15.6
9 | Br.COc1ncnc2c1NC1=C(S2)C(=NCCC(=O)O)CC(C)(C)C1 | 13
10 | CC1=C(OC(=O)c2ccccc2)C(C)(C)C(c2ccc(Br)cc2)OC1=O (stereo not drawn) | 13.7
11 | COc1cccc2sc(Nc3nc(-c4ccncc4)cs3)nc12 | 16.6
12 | COc1cccc(NC(=O)Nc2nnc(-c3ccccc3SCc3ccccc3)s2)c1 | 2.04
13 | CCOC(=O)N1CCN(c2nc(-c3cccc(OC)c3)cc(C(F)(F)F)n2)CC1 | 5.08
14 | Cc1ccc(NC(=S)Nc2cccc3ccccc23)cc1 | 9.76
15 | CN1C(=O)[C@H](Cc2ccc([N+](=O)[O-])cc2)NC1=S | -2.82
16 | Cc1[nH]c2ccccc2c1-c1nc2ccccc2[nH]1 | 3.62
17 | O=c1c2ccccc2[nH]c(=S)n1Cc1ccc2c(c1)OCO2 | 6.64
18 | CC(C)c1nc2c([nH]1)c(=O)n(C)c(=O)n2C | 10.6
19 | CCN(CC)C(=O)COc1coc(CN2CCN(c3ccccc3)CC2)cc1=O | 15.9
20 | Cc1ccc(Cl)cc1NC(=O)Cn1cccc1 | 10.9
21 | O=C(CSc1cn(CC(=O)N2CCOCC2)c2ccccc12)N1CCOCC1 | 15.7
22 | CC(NC(=O)CSC1=NCCS1)c1ccccc1 (stereo not drawn) | 16.8
23 | O=C(Nc1cccc(-n2cnnn2)c1)c1cccc(Cl)c1 | 6.25

Row | Structure (SMILES) | hERG current change (%, negative = inhibition) at 1uM [%]
24 | CC1CCN(C2CCN(S(=O)(=O)c3ccc(C(F)(F)F)cc3)CC2)CC1 | -1.29
25 | COC(=O)c1cnc(NNC(=O)c2ccc([N+](=O)[O-])cc2)nc1C(F)(F)F | 2.22
26 | CCc1ccc(S(=O)(=O)N2CCN(Cc3ccco3)CC2)cc1 | 3.03
27 | CCn1nc(C)c(/C=N/NC(=O)c2c[nH]c3ccccc23)c1C | 17.7
28 | CC(C)(C)c1cc(=O)[nH]c(SCc2ccccc2Cl)n1 | 8.27
29 | CCOc1ccc(N(CC(=O)NC2CC3CCC2C3)S(=O)(=O)c2ccc(C)cc2)cc1 (stereo not drawn) | 7.07
30 | CCOC(=O)C1=C(CS(=O)(=O)c2ccccc2)NC(=O)NC1c1ccc(OC)c(OC)c1 (stereo not drawn) | 14.9
31 | Brc1ccc(C2=Nn3cnnc3SC2)cc1 | 14.7
32 | COc1ccc(-n2ccc(=O)c(C(=O)O)n2)cc1 | 15.8
33 | NC(=O)c1ccc(C(F)(F)F)n(Cc2ccc(Cl)cc2)c1=O | 4.85
34 | COc1ccc(CNC(=O)C2CCN(S(C)(=O)=O)CC2)cc1 | 11.7
35 | COc1ccc(/C=C/C(=O)Nc2cccnc2)cc1OC | 14.6
36 | COc1ccc(NS(=O)(=O)c2cccc(NC(=O)CCC(=O)c3ccc(Cl)cc3)c2)cc1 | 0.411
37 | CC1(C)OC(=O)N2CCc3ccccc3C21C (stereo not drawn) | -1.79
38 | COc1ccc(CCC(=O)Nc2nc3ccccc3[nH]2)cc1 | 5.78
39 | Cc1ccc(NC(=O)C2CC2c2ccccc2)cc1 (stereo not drawn) | 9.72
40 | CC(C)=CCN1CCN(Cc2nc(C(C)C)cs2)CC1CCO (stereo not drawn) | 4.55
41 | CCc1nnc(NC(=O)c2ccc(S(=O)(=O)N(CC)Cc3ccccc3)cc2)o1 | 7.4
42 | O=C1N/C(=N/O)S/C1=C\c1ccccc1-n1cccn1 | 6.98
43 | CCCCN1C(=O)CCC(C(=O)O)C1c1ccc(OC)cc1 (stereo not drawn) | 10.3
44 | COc1ccccc1CNC(=O)C1CCC(CNS(=O)(=O)c2ccc(NC(C)=O)cc2)CC1 (stereo not drawn) | 15
45 | CCC(Sc1ncccc1C(=O)OCCN1CCCC1=O)C(=O)NCc1ccco1 (stereo not drawn) | -4.71
46 | C=CCNCCCOc1ccc(Cl)cc1Br.O=C(O)C(=O)O | -4.8

Row | Structure (SMILES) | hERG current change (%, negative = inhibition) at 1uM [%]
47 | CC(=O)Nc1ccc(-n2c(C)c(C(C)=O)c(C(C)=O)c2C)cc1 | 8.67
48 | COC(=O)c1cc(C(C)=O)c(C)[nH]c1=O | 9.83
49 | CCOc1cc(C(=O)NC(C)C2CC3CCC2C3)cc(OCC)c1OCC (stereo not drawn) | 4.43
50 | Cn1cnc2c1c(=O)n(Cc1ccc(F)cc1Cl)c(=O)n2C | 5.61
51 | Cc1ccc(OC(=O)C2c3ccccc3Oc3ccccc32)cc1C | 9.57
52 | Cc1cccc(NC(=S)NNC(=O)c2ccccc2OC(F)F)c1 | 11.6
53 | Cc1cc2ccccc2n1CCNC(=O)C1CCCC1 | 11
54 | CCCC(=O)N/C(N)=N/c1nc(C)c2ccccc2n1 | 13.1
55 | COc1ccc(Cn2c(C3CCCCC3)nc3c(c(=O)c4ccccc4n3C)c2=O)cc1 | 9.44
56 | CC(C)C1Cc2c(sc(NC(=S)NC(=O)c3ccccc3)c2C#N)CO1 (stereo not drawn) | 3.41
57 | Cc1ccc(-n2c(SCC(=O)NCC3CCCO3)nnc2-c2ccoc2C)cc1 (stereo not drawn) | -7.32
58 | COc1cc(N2C(=O)CSC2=S)cc(OC)c1OC | 13.7
59 | CC(=O)Nc1ccc(NC(=O)CSc2nc3ccccc3nc2N2CCCCC2)cc1 | 12.3
60 | O=c1n(Cc2ccc(F)cc2)nc2n1-c1ccccc1SC2 | 7.28
61 | O=C(CSc1ccc2nnc(-c3ccccn3)n2n1)Nc1ccccc1 | -2.42
62 | COc1cc2ccccc2cc1C(=O)Nc1ccccc1C | 16.6
63 | CCOC(=O)COc1ccc2c(C)cc(=O)oc2c1C(=O)c1ccccc1 | 8.3
64 | CC(C)(C)C(=O)C[n+]1ccccc1.[Br-] | 10.9
65 | COc1ccccc1N1CCN(/N=C/c2cc(OC)c(O)c(OC)c2)CC1 | -4.78
66 | O=C(CN1CCC(Cc2ccccc2)CC1)NC(=O)NC1CCCCC1 | -0.54
67 | COc1cccc2c1OC1(C)CC2NC(=O)N1c1cccc(C(=O)N2CCN(c3ccccc3)CC2)c1 (stereo not drawn) | 13.8
68 | O=C(c1ccco1)N1CCN(Cc2nc(Cc3ccccc3)no2)CC1 | 5.44
69 | COc1ccc(/C=N/NC(=O)c2nnn(-c3nonc3N)c2-c2cccs2)c(OC)c1 | 21.5

Row | Structure (SMILES) | hERG current change (%, negative = inhibition) at 1uM [%]
70 | COc1cccc(Sc2ccccc2CN(C)C)c1.Cl | -0.991
71 | Cc1cccc(C(=O)Nc2ccccc2C(=O)OCC(=O)Nc2ccc(C#N)cc2)c1 | 4.63
72 | CC1=NNC(=O)C1CC(=O)N/N=C(\C)c1cccs1 (stereo not drawn) | 19.1
73 | COc1ccc(CNC(=O)N2CCN(c3ccccc3OC)CC2)cc1 | -6.08
74 | COc1ccc(CC(C)N2CCN(Cc3ccccc3)CC2)cc1OC (stereo not drawn) | 2.68
75 | NC(=O)CC[C@H](NC(=O)c1ccc(F)cc1)C(=O)OCC(=O)Nc1c(F)c(F)c(F)c(F)c1F | 11.5
76 | COc1ccccc1-n1c2c(cc(C(=O)N3CCC(C)CC3)c1=O)C(=O)CC(C)(C)C2 | 1.35
77 | Cn1c(=O)c(Sc2ccc(Cl)cc2)c(O)c2ccccc21 | 15.7
78 | O=C(CCc1nnc(C2CCCCC2)o1)N1CCN(C2CCCCC2)CC1 | 4.5
79 | COc1cccc(OCc2cc(C(=O)NC(C)c3cnn(C)c3C)no2)c1 (stereo not drawn) | 3.87
80 | COc1ccc(N2CCN(C(=O)[C@H](Cc3c[nH]c4ccccc34)NC(C)=O)CC2)cc1 | 4.99
81 | CCOc1ccc(CCNC(=O)c2sc3nc4n(c(=O)c3c2C)CCC4)cc1 | 10.8
82 | O=C1C(Cc2ccccc2)S/C(=N/N=C/c2ccco2)N1c1ccccc1 (stereo not drawn) | 13.6
83 | CCOc1ccc2nc(SCC(=O)Nc3ncccn3)[nH]c2c1 | 12.3
84 | O=C(Nc1c(C(=O)O)[nH]c2ccccc12)NC1CCCCC1 | 5.48
85 | O=C(CCN1C(=O)c2ccccc2C1=O)Nc1ccncc1 | 2.48
86 | Cc1nn(-c2nc3ccccc3s2)c(N)c1-c1ccc(Cl)cc1 | 21.2
87 | CCCN(C(=O)CSc1nnnn1C)C1CCS(=O)(=O)C1 (stereo not drawn) | 11.7
88 | Cc1cc(NC(=O)CN(C)S(=O)(=O)c2cccc(Cl)c2)no1 | -5.13
89 | Cc1ccsc1/C=N/NC(=O)c1nnn(-c2nonc2N)c1CN(C)c1ccccc1 | 20.8
90 | Cc1nn(Cc2c(Cl)cccc2Cl)c(C)c1NC(=O)c1sc2ccccc2c1Cl | 8.64
